# Among all 220,000 compounds or so, about 5,700 (2.6%) were called active. This list was built around the results that the source calls inconclusive (neither active nor inactive); the mix of calls is not that of the screen. The call rests on the fitted dose curve; in most records, active means well fitted inhibition curve with a large enough effect; inconclusive means small, poorly fitted or top-dose-only effect; inactive means no such curve, though single readings can be large or run the other way. A potency beside an inconclusive call is a rough fit, not a confirmed value.
# Biological target: Lysine-specific demethylase 5B (Homo sapiens) (UniProt Q9UGL1)
# UniProt Q9UGL1, sequence (Q9UGL1 whole entry, looked up): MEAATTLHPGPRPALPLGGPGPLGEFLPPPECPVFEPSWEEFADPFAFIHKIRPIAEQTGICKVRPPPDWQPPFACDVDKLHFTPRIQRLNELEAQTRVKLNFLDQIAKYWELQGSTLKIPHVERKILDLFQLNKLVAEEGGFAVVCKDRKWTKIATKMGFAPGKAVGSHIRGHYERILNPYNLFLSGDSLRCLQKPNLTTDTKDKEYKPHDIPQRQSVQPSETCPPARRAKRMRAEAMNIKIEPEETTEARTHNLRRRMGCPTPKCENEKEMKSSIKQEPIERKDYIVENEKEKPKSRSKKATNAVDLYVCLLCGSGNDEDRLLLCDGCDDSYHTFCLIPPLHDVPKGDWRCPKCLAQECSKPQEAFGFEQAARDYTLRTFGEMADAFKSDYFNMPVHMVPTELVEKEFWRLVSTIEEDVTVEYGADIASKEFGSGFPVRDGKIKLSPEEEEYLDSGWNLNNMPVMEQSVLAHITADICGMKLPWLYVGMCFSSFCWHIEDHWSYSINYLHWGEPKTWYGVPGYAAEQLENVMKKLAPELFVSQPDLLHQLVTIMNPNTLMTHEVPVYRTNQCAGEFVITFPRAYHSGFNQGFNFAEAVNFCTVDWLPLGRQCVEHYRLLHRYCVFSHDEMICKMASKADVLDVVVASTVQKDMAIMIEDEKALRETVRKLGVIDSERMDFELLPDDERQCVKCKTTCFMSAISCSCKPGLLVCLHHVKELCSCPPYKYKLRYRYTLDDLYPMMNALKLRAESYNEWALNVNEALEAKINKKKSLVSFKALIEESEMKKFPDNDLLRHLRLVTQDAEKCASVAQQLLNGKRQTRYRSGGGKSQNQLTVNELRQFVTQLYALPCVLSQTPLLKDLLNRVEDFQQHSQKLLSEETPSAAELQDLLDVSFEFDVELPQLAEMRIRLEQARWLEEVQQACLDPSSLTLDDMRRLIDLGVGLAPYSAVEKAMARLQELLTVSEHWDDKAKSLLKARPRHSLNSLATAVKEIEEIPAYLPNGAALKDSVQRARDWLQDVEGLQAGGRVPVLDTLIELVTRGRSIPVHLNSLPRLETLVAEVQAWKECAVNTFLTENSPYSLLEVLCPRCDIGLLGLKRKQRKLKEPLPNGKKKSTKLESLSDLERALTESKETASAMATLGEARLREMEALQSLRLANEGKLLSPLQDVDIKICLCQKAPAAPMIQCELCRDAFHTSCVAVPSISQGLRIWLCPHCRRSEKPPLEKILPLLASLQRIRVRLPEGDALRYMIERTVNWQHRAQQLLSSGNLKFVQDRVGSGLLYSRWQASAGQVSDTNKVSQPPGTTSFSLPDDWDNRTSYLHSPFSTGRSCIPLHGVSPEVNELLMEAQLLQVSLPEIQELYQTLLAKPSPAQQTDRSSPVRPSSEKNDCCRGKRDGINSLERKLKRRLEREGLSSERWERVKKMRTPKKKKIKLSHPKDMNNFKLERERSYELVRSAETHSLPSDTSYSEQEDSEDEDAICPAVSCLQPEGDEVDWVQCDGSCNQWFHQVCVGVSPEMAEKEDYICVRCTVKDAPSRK
# Test: Primary screen for KDM5B Histone Demethylases FDH-coupled qHTS; further: nearly all actives have a fitted effect of over 70% in size; on activity change, negative = inhibition: 0% is about no effect
# Conditions: FDH-coupled NADH fluorescence (FDH is formaldehyde dehydrogenase); activity change, negative = inhibition: at 57.7 µM (top of the series) unless noted
# Summary of the method: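 KDM5BΔAP (200 nM final) in 50 mM HEPES pH 7.5, 0.01% Tween-20 was preincubated 10 min at RT with compound over a concentration range. Substrate mix (H3K4me3 12.5 µM, α-KG 25 µM, Fe²⁺, ascorbate, NAD⁺, FDH) was added, and NADH fluorescence change over 30 min gave dose-response curves.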
# Potency means the concentration at half of the fitted maximal effect; tags describe the fitted curve by direction and shape.
SMILES,Potency,"activity change, negative = inhibition"
CCCc1ccc(C2Sc3ccccc3NC3=C2C(=O)c2ccccc23)cc1 (stereo unspecified),"inconclusive: 12.6 µM [inhibitor, partial curve, poor fit]",
COc1ccc2nc(/C=C/c3cccc(F)c3)sc2c1,"inconclusive: 1.58 µM [inhibitor, partial curve, poor fit]",
COc1ccccc1OCC(=O)Nc1ccc2c(c1)OCCO2,,inactive: 23.2%
COc1ccc(OCC2(C)COc3ccc(C(=O)NCc4ccc(F)cc4)cc3N2)cc1 (stereo unspecified),"inconclusive: 39.8 µM [inhibitor, partial curve, poor fit]",
CNc1nc2c(c(C(=O)N3CCCC3)n1)CN(CC1(O)CCNC1)CC2 (stereo unspecified),"inconclusive: 31.6 µM [inhibitor, partial curve, poor fit]",
CNC(=O)Nc1ccc(C)n(CC(=O)N2CCN(c3cccc(Cl)c3)CC2)c1=O,"inconclusive: 28.2 µM [inhibitor, single point]",
O=C(Nn1cnc2ccccc2c1=O)C1CCCC1,,inactive: 11.3%
Cc1cc(Cl)ccc1OCCCc1n[nH]c(=S)n1Cc1ccco1,"inconclusive: 35.5 µM [inhibitor, single point]",
COCCn1cnc2ccc(-c3ccnn3C)nc2c1=O,active: 35.5 µM,
O=C(Cc1ccc(Cl)cc1)NCc1coc(-c2cccs2)n1,"inconclusive: 39.8 µM [inhibitor, single point]",
COC(=O)c1ccccc1NC(=O)c1cc2nc(-c3ccc(OC)cc3)cc(C(F)(F)F)n2n1,,inconclusive: -36.3% [inhibitor]
O=C(NC1(C(F)(F)F)C(=O)Nc2c1c(=O)[nH]c(=O)n2-c1ccc(F)cc1)c1ccco1 (stereo unspecified),,inactive: 11.3%
Cc1ccc(NC(=O)c2ccc(NC(=O)N3CCSc4nc(C)cc(C)c43)cc2)c(Cl)c1,"inconclusive: 6.31 µM [inhibitor, partial curve, poor fit]",
CC(C)N1C(=O)C2(CCCC2)C1C(=O)N(C)Cc1cccnc1 (stereo unspecified),,inactive: -3.66%
Cc1c(-c2ccc(F)cc2)[nH]c2ccc(CNC(=O)[C@@H]3CCCO3)cc12,active: 28.2 µM,
COC(=O)[C@@H]1Cc2c([nH]c3ccccc23)[C@H]2C[C@H](NCCN3CCOCC3)C[C@@H](c3ccc(F)cc3)N21,"inconclusive: 7.08 µM [inhibitor, single point]",
Cc1nc2cc(NC(=O)c3cc(S(=O)(=O)N(C)c4ccccc4)ccc3Cl)ccc2o1,,inactive: -16.3%
N#C/C(=C\c1ccnc2ccccc12)c1nc2ccccc2s1,,inactive: 1.71%
CCn1cc(CNC(=O)c2cc(-c3ccc(C)c(C)c3)nc3ccccc23)c(C)n1,"inconclusive: 12.6 µM [inhibitor, partial curve, poor fit]",
COc1ccc(CCn2c(Br)nc3c2c(=O)n(C)c(=O)n3C)cc1,,inactive: 15.4%
COc1cc(C)ccc1Oc1ccc(NC(=O)c2ccc3c(c2)NC(=O)CS3)cn1,,inactive: -21.2%
Cc1ccsc1C(=O)OCC(=O)Nc1ccc(Cl)c(C(F)(F)F)c1,,inactive: -4.56%
CCOC(=O)c1cnc2c(OC)cccc2c1Nc1ccccc1C(=O)O,"inconclusive: 25.1 µM [inhibitor, partial curve, poor fit]",
O=C(O)c1ccc2cc(C(=O)O)[nH]c2c1,"inconclusive: 22.4 µM [inhibitor, partial curve, poor fit]",

SMILES,Potency,"activity change, negative = inhibition"
CCC(C(=O)N1CCN(c2ccc(C#N)cn2)CC1)n1cccn1 (stereo unspecified),"inconclusive: 17.8 µM [inhibitor, single point]",
O=C(CN1CCCCCC1)NCCc1c[nH]c2ccccc12,,inactive: -7.79%
Cc1ccc(/C=C2/C(=O)ON=C2c2ccccc2)o1,"inconclusive: 20 µM [inhibitor, partial curve, poor fit]",
O=C(Cc1ccc(N(Cc2cccc(F)c2)C(=O)c2ccco2)cc1)Nc1ccccc1,"inconclusive: 25.1 µM [inhibitor, single point]",
CC(C)(O)CCc1cccc(C(=O)NCCOc2cccc3cccnc23)c1,"inconclusive: 28.2 µM [inhibitor, single point]",
COc1ccc(Cn2c(SCc3ccc(C(=O)NC4CCCC4)cc3)nc3cccnc32)cc1,"inconclusive: 44.7 µM [inhibitor, single point]",
Cc1cnc(-c2ccccc2)n1CC1CCN(S(=O)(=O)Cc2ccccc2F)CC1,,inactive: -11.6%
O=C(OCc1nc2ccccc2o1)c1ccccc1F,,inactive: 4.83%
Cc1ccc2oc([C@H]3CCN(Cc4c[nH]c5ccccc45)C3)nc2c1,active: 12.6 µM,
COc1ccc(C2Cn3nnc(-c4noc(-c5ccc[nH]5)n4)c3CO2)cc1 (stereo unspecified),"inconclusive: 39.8 µM [inhibitor, single point]",
Cn1cc(-c2cnc3[nH]cc(CC(=O)NCc4ccncc4)c3c2)cn1,"inconclusive: 31.6 µM [inhibitor, single point]",
COc1ccc(-c2cnc(NC(=O)Cc3ccccc3)c3c2CCO3)cn1,,inactive: -27.1% [at 86.2 µM]
CCc1ccc(S(=O)(=O)NCCc2csc3nc(-c4ccccc4)nn23)s1,"inconclusive: 3.55 µM [inhibitor, partial curve, poor fit]",
COCCN1CCCCCC(O)c2cc(C(=O)NC3CCCCC3)ccc21 (stereo unspecified),"inconclusive: 22.4 µM [inhibitor, single point]",
COc1cccc(CNC(=O)Cn2ncc3c4ccccc4n(Cc4ccccc4)c3c2=O)c1,"inconclusive: 20 µM [inhibitor, partial curve, poor fit]",
CCOc1ccccc1CNC(=O)c1cnc2sc(N3CCCCCC3)nn2c1=O,"inconclusive: 31.6 µM [inhibitor, partial curve, poor fit]",
COc1cccc(-c2csc(-c3cc4cccc(OC)c4oc3=O)n2)c1,"inconclusive: 1.78 µM [inhibitor, partial curve, poor fit]",
Cc1ccsc1CN1CCC(Oc2ccccc2-c2nc(-c3ccncc3)no2)C1 (stereo unspecified),"inconclusive: 28.2 µM [inhibitor, partial curve]",
Cc1ccc(C(=O)NCCc2nc3cc(NC(=O)C4CCCCC4)ccc3n2C)cc1F,,inactive: 26.2%
COc1ccc(CNC(=O)c2cccc3c2C(=O)N(c2ccc(OC)cc2)C3)cc1,"inconclusive: 22.4 µM [inhibitor, partial curve, poor fit]",
Cc1noc2c(NC3CCN(C)CC3)cc(-c3cccs3)nc12,,inactive: -32.2% [at 86.2 µM]
CCc1nc2c(c(-c3ccc(Cl)cc3)n1)CN(C(=O)C1CCCC1)CC2,"inconclusive: 35.5 µM [inhibitor, partial curve, poor fit]",
O=C(CNCc1ccc(Cl)cc1)Nc1ccc(C(=O)N2CCCCC2)cc1,"inconclusive: 3.55 µM [inhibitor, full curve, poor fit]",
Cc1ccc(NC(=O)CCC[C@H]2NC[C@@H]3C[C@H]2CN(Cc2ccccc2)C3)cc1,,inactive: -10.2%

SMILES,Potency,"activity change, negative = inhibition"
C1=C(c2cc(-c3cccc4[nH]ccc34)cn3cncc23)CCOC1,active: 25.1 µM,
CC(c1cc2ccccc2o1)N(C)S(=O)(=O)c1cccs1 (stereo unspecified),,inactive: -21.2%
CC(=O)Nc1ccc(CN2C(=O)OC3(CCN(C(=O)C(C)C)CC3)C2(C)c2ccccc2)cc1 (stereo unspecified),,inactive: -11.6%
Cc1csc(S(=O)(=O)N2CCOC(CCc3ccccc3)C2)c1 (stereo unspecified),"inconclusive: 35.5 µM [inhibitor, single point]",
CCOc1ccccc1C(=O)NCC(=O)N1CCN(c2ccccn2)CC1,active: 28.2 µM,
Cc1c(CC(=O)NCCCn2ccnc2)c(=O)oc2cc(O)ccc12,,inactive: -2160%
CCOC(=O)c1nn(-c2ccc(Cl)cc2)c(C)cc1=O,,inactive: 33.2%
COc1ccc(C(c2c(O)cc(C)n(Cc3ccco3)c2=O)N2CCCCC2)cc1OC (stereo unspecified),"inconclusive: 28.2 µM [inhibitor, partial curve, poor fit]",
Cc1ccc(C)c(C(C)NC(=O)COc2ccccc2C#N)c1 (stereo unspecified),,inactive: 23.9%
CC1CCN(C(=O)CSc2nc(-c3ccccc3)no2)CC1,"inconclusive: 0.794 µM [inhibitor, partial curve, poor fit]",
COCc1ccc2c(c1)c(OC(C)(C)C(=O)Nc1ccccc1)nn2Cc1cccnc1,,inactive: -3.06% [at 86.2 µM]
CC(C)(C)C(=O)/C=c1/[nH]c(=O)/c(=C\c2ccccc2OC(F)(F)F)s1,,inactive: -0.74%
CC(C)(C)C1CCc2c(sc3ncc(NC(=O)c4ccccc4)c(=O)n23)C1 (stereo unspecified),,inactive: 14.5%
CC1CCCN(C(C)C(=O)N(C)CC(=O)Nc2ccccc2C(F)(F)F)C1 (stereo unspecified),,inactive: 16.7%
O=c1oc2cc(O)ccc2cc1-c1nnc(Nc2ccc(Cl)cc2)s1,"inconclusive: 17.8 µM [inhibitor, single point]",
COc1cccc(C(=O)N2C(C(=O)NCC3CCCO3)COC23CCC(C)CC3)c1 (stereo unspecified),,inactive: 3.93%
COc1ccc(S(=O)(=O)N2CCC(Oc3ccc(-n4cnnn4)cc3)CC2)cc1OC,"inconclusive: 14.1 µM [inhibitor, partial curve, poor fit]",
CN1CCC(N2CCC[C@@H](O)[C@H](NC(=O)c3ccc(OCC(N)=O)cc3)C2)CC1,"inconclusive: 31.6 µM [inhibitor, single point]",
CCOc1ccc(N(CC(=O)NCc2ccccc2Cl)S(=O)(=O)c2c(C)[nH]c(=O)[nH]c2=O)cc1,"inconclusive: 3.16 µM [inhibitor, full curve, poor fit]",
CC(=O)c1c(C)[nH]c(C(=O)c2cc3cc(Br)ccc3o2)c1C,,inactive: 7.67%
CCc1csc(CNC(=O)c2ccc(N3CCN(C)C(C)C3)nc2)n1 (stereo unspecified),"inconclusive: 31.6 µM [inhibitor, single point]",
Cc1noc(C)c1-c1cc2cc(CN(C)C)oc2c(NC(C)C)n1,,inactive: -0.168% [at 86.2 µM]
O=C(Nc1ccccc1C(=O)OCC(=O)N1CCCC1=O)c1ccco1,,inactive: 1.88%

# From PubChem BioAssay AID1347165 (National Center for Advancing Translational Sciences (NCATS), 2019)
